The list shows a part of the results. A value given as a limit tells only on which side of the number the result lay.

Sequences and labels used below:
B1: PhoQ; a variant is named by its letters at X, in order, P23837 (parent)
chain: MKKLLRLFFPLSLRVRFLLATAAVVLVLSLAYGMVALIGYSVSFDKTTFRLLRGESNLFYTLAKWENNKLHVELPENIDKQSPTMTLIYDENGQLLWAQRDVPWLMKMIQPDWLKSNGFHEIEADVNDTSLLLSGDHSIQQQLQEVREDDDDAEMTHSVAVNVYPATSRMPKLTIVVVDTIPVELKSSYMVWSWFIYVLSANLLLVIPLLWVAAWWSLRPIEALAKEVRELEEHNRELLNPATTRELTSLVRNLNRLLKSERERYDKYRTTLTDLTHSLKTPLXXLQXXLRSLRSEKMSVSDAEPVMLEQISRISQQIGYYLHRASMRGGTLLSRELHPVAPLLDNLTSALNKVYQRKGVNISLDISPEISFVGEQNDFVEVMGNVLDNACKYCLEFVEISARQTDEHLYIVVEDDGPGIPLSKREVIFDRGQRVDTLRPGQGVGLAVAREITEQYEGKIVAGESMLGGARMEVIFGRQHSAPKDE

In the assay the parent is B1. The experiment in a line: enrichment ratio after two sorts for PhoP signalling (ratio (wild type AVST 3.29)); higher = more functional. The note with it: with PhoP (E. coli).
As to YIWW, the enrichment ratio is ≤ 0.25.

For the variant AFAQ, the enrichment ratio is ≤ 0.25.

With GYVF, the enrichment ratio was ≤ 0.25.

Take SFWI: the enrichment ratio is ≤ 0.25.

In the case of PAIG, the enrichment ratio was ≤ 0.25.

RQHQ: the enrichment ratio was ≤ 0.25.

In the case of MHVR, the enrichment ratio is ≤ 0.25.

For KDQM, the enrichment ratio is ≤ 0.25.

As for FTLS, the enrichment ratio was 6.25.

Turning to VYIR, the enrichment ratio was ≤ 0.25.

For the variant PGGQ, the enrichment ratio was ≤ 0.25.

Take QMAS: the enrichment ratio was ≤ 0.25.

In the case of TLSW, the enrichment ratio came to 2.4.

In the case of VILH, the enrichment ratio is ≤ 0.25.

For the variant GRCW, the enrichment ratio is ≤ 0.25.

Take VPIC: the enrichment ratio was ≤ 0.25.

For the variant MPWM, the enrichment ratio was ≤ 0.25.

On to HNVE, for which the enrichment ratio is ≤ 0.25.

On to FCMN, for which the enrichment ratio is 2.27.

Take ENKA: the enrichment ratio was ≤ 0.25.

As for HADI, the enrichment ratio is ≤ 0.25.

As for TWSG, the enrichment ratio is ≤ 0.25.

Take WMCW: the enrichment ratio was ≤ 0.25.

Turning to NWTP, the enrichment ratio was ≤ 0.25.

In the case of GPVF, the enrichment ratio was ≤ 0.25.

As to ILWA, the enrichment ratio is ≤ 0.25.

In the case of FYNM, the enrichment ratio is ≤ 0.25.

Take LHST: the enrichment ratio was ≤ 0.25.

For the variant YQIQ, the enrichment ratio is ≤ 0.25.

On to AAYP, for which the enrichment ratio was ≤ 0.25.

For the variant TIVK, the enrichment ratio is ≤ 0.25.

Turning to RKGG, the enrichment ratio was ≤ 0.25.

On to NYIS, for which the enrichment ratio is ≤ 0.25.

Take WGHL: the enrichment ratio was ≤ 0.25.

For HDKW, the enrichment ratio is ≤ 0.25.

For VLQC, the enrichment ratio is ≤ 0.25.

As for AQVE, the enrichment ratio stood at 34.1.

As for YMNL, the enrichment ratio is ≤ 0.25.

Take QGEL: the enrichment ratio is ≤ 0.25.

With SEPH, the enrichment ratio was ≤ 0.25.

On to WIRF, for which the enrichment ratio was ≤ 0.25.

For PCSV, the enrichment ratio was ≤ 0.25.

On to MNCS, for which the enrichment ratio is ≤ 0.25.

GFCM: the enrichment ratio came out at 1.87.

On to SHDT, for which the enrichment ratio was ≤ 0.25.

Regarding PPET, the enrichment ratio is ≤ 0.25.

Take HEGL: the enrichment ratio was ≤ 0.25.

As for RICL, the enrichment ratio is ≤ 0.25.

Turning to YASS, the enrichment ratio was ≤ 0.25.

ECHA: the enrichment ratio was ≤ 0.25.

In the case of GMYR, the enrichment ratio is ≤ 0.25.

For VCTQ, the enrichment ratio is ≤ 0.25.

Consider LVKD, for which the enrichment ratio is ≤ 0.25.

With QIMP, the enrichment ratio is ≤ 0.25.

On to WNSM, for which the enrichment ratio is ≤ 0.25.

As for LDEI, the enrichment ratio is ≤ 0.25.

For YCYS, the enrichment ratio was ≤ 0.25.

Regarding IFMF, the enrichment ratio was ≤ 0.25.

AMAR: the enrichment ratio came to 7.65.

On to IQQM, for which the enrichment ratio was ≤ 0.25.

With TEGA, the enrichment ratio is ≤ 0.25.

As to LNGI, the enrichment ratio is ≤ 0.25.

For WVMA, the enrichment ratio is ≤ 0.25.

As to KQTY, the enrichment ratio is ≤ 0.25.

Take ERCN: the enrichment ratio is ≤ 0.25.

In the case of YAFI, the enrichment ratio was ≤ 0.25.

For GEHY, the enrichment ratio was ≤ 0.25.

Regarding KFLA, the enrichment ratio is ≤ 0.25.

Consider MQFC, for which the enrichment ratio amounted to 0.266.

As to LARK, the enrichment ratio is ≤ 0.25.

As to MHCD, the enrichment ratio is ≤ 0.25.

Consider PCGW, for which the enrichment ratio is ≤ 0.25.

Take HYLH: the enrichment ratio was ≤ 0.25.

For the variant SLET, the enrichment ratio is ≤ 0.25.

LPVI: the enrichment ratio was ≤ 0.25.

As to GIAW, the enrichment ratio came out at 21.6.

As to SRCT, the enrichment ratio was ≤ 0.25.

Turning to GIAD, the enrichment ratio is ≤ 0.25.

Turning to VLIN, the enrichment ratio is ≤ 0.25.

As for RFWH, the enrichment ratio was ≤ 0.25.

As for ATNI, the enrichment ratio was ≤ 0.25.

Regarding HFSC, the enrichment ratio is ≤ 0.25.

Take TYDV: the enrichment ratio was ≤ 0.25.

Regarding AQLF, the enrichment ratio is 15.8.

Take PQCL: the enrichment ratio worked out at 0.411.

Take WICI: the enrichment ratio is ≤ 0.25.

KSHA: the enrichment ratio was ≤ 0.25.

GHDY: the enrichment ratio was ≤ 0.25.

As to RTHH, the enrichment ratio turned out to be 1.43.

On to EVRY, for which the enrichment ratio was ≤ 0.25.

Consider HFWY, for which the enrichment ratio was ≤ 0.25.

Take GDCT: the enrichment ratio is 0.951.

On to RGQV, for which the enrichment ratio is ≤ 0.25.

Take IDYF: the enrichment ratio is ≤ 0.25.

On to AQNH, for which the enrichment ratio is ≤ 0.25.

As to DKKG, the enrichment ratio is ≤ 0.25.

For the variant NNCW, the enrichment ratio was ≤ 0.25.

For the variant LNEH, the enrichment ratio is ≤ 0.25.

Take DHNR: the enrichment ratio was ≤ 0.25.

For the variant QSNL, the enrichment ratio is 0.925.

As for RKLL, the enrichment ratio is ≤ 0.25.

With LFPC, the enrichment ratio was ≤ 0.25.

On to ANGQ, for which the enrichment ratio was ≤ 0.25.

For the variant LYDM, the enrichment ratio is ≤ 0.25.

For the variant AEGR, the enrichment ratio is ≤ 0.25.

Turning to GTVI, the enrichment ratio is 1.54.

On to WDCF, for which the enrichment ratio was ≤ 0.25.

For MPYV, the enrichment ratio was ≤ 0.25.

For FRGT, the enrichment ratio is ≤ 0.25.

Take EATY: the enrichment ratio was ≤ 0.25.

Consider TCKF, for which the enrichment ratio was ≤ 0.25.

As for CFPI, the enrichment ratio was ≤ 0.25.

Turning to AWDR, the enrichment ratio was ≤ 0.25.

Consider FNKY, for which the enrichment ratio was ≤ 0.25.

In the case of HPRW, the enrichment ratio is ≤ 0.25.

Consider NMWC, for which the enrichment ratio was ≤ 0.25.

Take DCYA: the enrichment ratio was ≤ 0.25.

For the variant AVGW, the enrichment ratio turned out to be 12.2.

Turning to ANLL, the enrichment ratio turned out to be 13.4.

As for QHSW, the enrichment ratio is ≤ 0.25.

Turning to IMCI, the enrichment ratio was ≤ 0.25.

In the case of AKYG, the enrichment ratio is ≤ 0.25.

Consider KAHS, for which the enrichment ratio was ≤ 0.25.

LCQR: the enrichment ratio was ≤ 0.25.

YGLW: the enrichment ratio was ≤ 0.25.

For VNAR, the enrichment ratio was ≤ 0.25.

For ETMH, the enrichment ratio is ≤ 0.25.

SEYD: the enrichment ratio was ≤ 0.25.

As for HYTK, the enrichment ratio is ≤ 0.25.

On to RQNV, for which the enrichment ratio was ≤ 0.25.

Turning to INKH, the enrichment ratio is ≤ 0.25.

For the variant HKVP, the enrichment ratio was ≤ 0.25.

For the variant FWKE, the enrichment ratio is ≤ 0.25.

In the case of KMGR, the enrichment ratio is ≤ 0.25.

As for WYDW, the enrichment ratio is ≤ 0.25.

As for HFRS, the enrichment ratio was ≤ 0.25.

As for WNER, the enrichment ratio was ≤ 0.25.

For QTAG, the enrichment ratio is ≤ 0.25.

Consider KLID, for which the enrichment ratio is ≤ 0.25.

Consider RSAC, for which the enrichment ratio is ≤ 0.25.

In the case of ALNL, the enrichment ratio is 1.07.

Turning to NCKH, the enrichment ratio was ≤ 0.25.

YKCA: the enrichment ratio is ≤ 0.25.

For NRWC, the enrichment ratio is ≤ 0.25.

For the variant IIDH, the enrichment ratio was ≤ 0.25.

For VNCQ, the enrichment ratio was ≤ 0.25.

In the case of KCFE, the enrichment ratio was ≤ 0.25.

For EPFW, the enrichment ratio is ≤ 0.25.

For the variant SDDS, the enrichment ratio is ≤ 0.25.

With HSGQ, the enrichment ratio is ≤ 0.25.

Take NSLP: the enrichment ratio is ≤ 0.25.

As to HELA, the enrichment ratio is ≤ 0.25.

Consider DTRQ, for which the enrichment ratio was ≤ 0.25.

Source of the values: a collection of fitness landscapes (doi:10.1126/science.1257360).
